Experimental data reported in PubChem BioAssay AID1460 (National Center for Advancing Translational Sciences (NCATS), 2008).
Where “and” joins values, the source holds several entries; their conditions need not be identical. Equal entries are not always repeated. Screen size: about 270,000 compounds; about 5,800 (2.1%) were called active. Inconclusive results, whose numbers are uncertain, are shown with a selection of clear calls. The call rests on the fitted dose curve; in most records, active means well fitted inhibition curve with a large enough effect; inconclusive means small, poorly fitted or top-dose-only effect; inactive means flat fitted curve, though single readings scatter. Potencies beside an inconclusive call are fits to weak or partial responses and may not hold up.

Molecular target: Microtubule-associated protein tau (Homo sapiens) (UniProt P10636)
UniProt P10636, sequence (P10636 whole entry, looked up): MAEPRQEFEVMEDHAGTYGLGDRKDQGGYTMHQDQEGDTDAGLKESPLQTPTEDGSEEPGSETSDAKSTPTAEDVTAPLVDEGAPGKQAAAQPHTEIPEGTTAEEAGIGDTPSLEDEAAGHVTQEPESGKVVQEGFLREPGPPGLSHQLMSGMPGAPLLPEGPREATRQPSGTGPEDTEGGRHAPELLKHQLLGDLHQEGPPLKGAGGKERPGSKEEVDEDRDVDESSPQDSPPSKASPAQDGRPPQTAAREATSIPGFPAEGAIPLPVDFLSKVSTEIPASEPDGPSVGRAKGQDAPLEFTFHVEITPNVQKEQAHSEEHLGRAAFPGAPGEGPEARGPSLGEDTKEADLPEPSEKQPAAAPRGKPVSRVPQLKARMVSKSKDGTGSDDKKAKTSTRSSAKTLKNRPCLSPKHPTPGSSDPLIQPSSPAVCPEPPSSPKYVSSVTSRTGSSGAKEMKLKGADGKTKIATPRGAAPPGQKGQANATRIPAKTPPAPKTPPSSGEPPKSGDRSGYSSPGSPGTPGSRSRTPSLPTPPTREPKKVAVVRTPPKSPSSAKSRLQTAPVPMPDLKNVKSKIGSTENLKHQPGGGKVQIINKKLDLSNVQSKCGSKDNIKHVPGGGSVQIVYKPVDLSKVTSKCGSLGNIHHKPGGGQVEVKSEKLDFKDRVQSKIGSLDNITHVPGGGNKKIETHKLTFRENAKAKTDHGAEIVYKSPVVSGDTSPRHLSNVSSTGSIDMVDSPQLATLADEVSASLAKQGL
Experiment: qHTS for Inhibitors of Tau Fibril Formation, Thioflavin T Binding; further: nearly all actives have a fitted effect of over 55% in size
Conditions: recombinant tau K18 P301L (four-repeat tau fragment), heparin-induced fibrillization, ThT fluorescence; series mostly up to 57.4 µM
Procedure, shortened: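 Heparin-induced fibrillization of the P301L-mutant K18 repeat-domain fragment of human tau was followed by ThT binding in quantitative high-throughput format.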
Potency means the concentration at half of the fitted maximal effect; tags describe the fitted curve by direction and shape.

Question: COc1ccc(-c2cc(C(F)(F)F)nc(SCC(=O)NCCc3ccccc3)n2)cc1OC was tested. Which Potency did it give?
Answer: The Potency was “inactive”.

Question: How did the Potency turn out when COC(=O)c1sc(NC(=O)c2cc(-c3ccccc3)nc3ccccc23)c(C#N)c1C was run?
Answer: The Potency was active: 28.2 µM.

Question: For CN(Cc1ccc(F)cc1)C(=O)COc1ccccc1-c1ccccc1, which Potency is on record?
Answer: The Potency was inconclusive: 39.8 µM [inhibitor, single point].

Question: How did the Potency turn out when CCOC(=O)c1nnc(-c2cccs2)nc1Oc1ccc(Cl)cc1 was run?
Answer: The Potency was inconclusive: 14.1 µM [inhibitor, partial curve].

Question: For Cc1ccc2cc3c(N)c(C(=O)Nc4c(C)[nH]c(=O)[nH]c4=O)sc3nc2c1, which Potency is on record?
Answer: Its Potency is inconclusive: 3.55 µM [inhibitor, full curve].

Question: How did the Potency turn out when Cc1cc(S(=O)(=O)Nc2ccc(-c3ccc(N4CCCCCC4)nn3)cc2)c(C)cc1Cl was run?
Answer: Its Potency is “inactive”.

Question: For COc1ccc(NC(=O)c2cc(-c3ccc(OC)c(OC)c3)on2)cc1OC, which Potency is on record?
Answer: Its Potency is inconclusive: 0.398 µM [inhibitor, full curve, poor fit].

Question: Which Potency does the source give for NCCCCCCCCCCNS(=O)(=O)c1cccc2c(Cl)cccc12 here?
Answer: Its Potency is inconclusive: 25.1 µM [inhibitor, partial curve].

Question: With COC(=O)c1ccc(N2CCOCC2)c(NC(=O)Nc2cccc(OC)c2)c1 as the molecule, how does the Potency read?
Answer: Its Potency is “inactive”.

Question: CCOc1ccc(NC(=O)C2CCN(c3nnc(-n4c(C)ccc4C)s3)CC2)cc1 was tested. Which Potency did it give?
Answer: Its Potency is “inactive”.

Question: How did the Potency turn out when CC(=O)Nc1ccc(S(=O)(=O)Nc2nc3ccccc3nc2Nc2ccc(S(N)(=O)=O)cc2)cc1 was run?
Answer: The Potency was inconclusive: 22.4 µM [inhibitor, partial curve].

Question: Which Potency does the source give for COc1ccc(-n2c(/C=C3\C(=O)N(C)c4ccccc43)nc3ccccc3c2=O)cc1 here?
Answer: The Potency was inconclusive: 2.82 µM [inhibitor, single point].

Question: Which Potency does the source give for Cc1cc(C)c(S(=O)(=O)n2c([N+](=O)[O-])cnc2C)c(C)c1 here?
Answer: The Potency was “inactive”.

Question: For CCc1ccccc1NC(=O)c1cnc2sc(N3CCCC3)nn2c1=O, which Potency is on record?
Answer: Its Potency is “inactive”.

Question: How did the Potency turn out when O=C(Nc1ccc(-c2cn3cccnc3n2)cc1)c1cc(Br)ccc1Cl was run?
Answer: Its Potency is inconclusive: 0.447 µM [inhibitor, full curve].

Question: How did the Potency turn out when Cc1ccccc1C(=O)Nc1cccc(NC(=O)c2ccc(-c3ccc(Br)cc3)o2)c1 was run?
Answer: The Potency was inconclusive: 1.26 µM [inhibitor, full curve].

Question: With Cc1cc(C(=O)COc2ccccc2C(N)=O)c(C)n1C1CC1 as the molecule, how does the Potency read?
Answer: Its Potency is inconclusive: 10 µM [inhibitor, partial curve, poor fit].

Question: For CC1(C)CCC2=C(O1)c1ccccc1C(=O)C2=O, which Potency is on record?
Answer: Its Potency is active: 5.01 µM and active: 11.2 µM and active: 12.6 µM.

Question: For BrC(/C=C\c1ccccc1)=N/Nc1nc(N2CCOCC2)nc(N2CCOCC2)n1, which Potency is on record?
Answer: Its Potency is inconclusive: 28.2 µM [inhibitor, single point].

Question: How did the Potency turn out when Cc1cccc(Nc2nc(N)c([N+](=O)[O-])c(NCCO)n2)c1 was run?
Answer: Its Potency is inconclusive: 25.1 µM [inhibitor, partial curve, poor fit].

Question: O=C(/C=C/c1ccc2c(c1)OCO2)c1ccccn1 was tested. Which Potency did it give?
Answer: Its Potency is active: 14.1 µM.

Question: Which Potency does the source give for O=C(Nc1cccc(Cl)c1)c1cc2c(=O)[nH]c3ccccc3c2s1 here?
Answer: The Potency was inconclusive: 31.6 µM [activator, single point].

Question: With Cc1cccc(N2CCN(C(=O)CCn3c(=O)c4cccn4c4cccnc43)CC2C)c1 (centres undefined) as the molecule, how does the Potency read?
Answer: The Potency was inconclusive: 12.6 µM [inhibitor, partial curve].

Question: CC[n+]1ccc2cc(OC)c(OC)cc2c1Cc1ccc(OC)c(OC)c1 was tested. Which Potency did it give?
Answer: The Potency was “inactive”.

Question: CCOC(=O)c1sc(S(C)(=O)=O)c2c1CCc1conc1-2 was tested. Which Potency did it give?
Answer: The Potency was inconclusive: 20 µM [inhibitor, partial curve, poor fit].

Question: How did the Potency turn out when CCCOc1ccc2ccccc2c1/C=N/n1c(C)nnc1-n1nc(C)cc1C was run?
Answer: The Potency was inconclusive: 20 µM [inhibitor, partial curve, poor fit].

Question: Which Potency does the source give for COc1cccc(C(=O)Nc2cccc(-c3cn4c(C)csc4n3)c2)c1OC here?
Answer: The Potency was inconclusive: 7.94 µM [inhibitor, partial curve].

Question: Which Potency does the source give for COc1cc2[nH]c3ccccc3c2cc1C here?
Answer: The Potency was inconclusive: 39.8 µM [inhibitor, single point].

Question: Which Potency does the source give for COc1cc(OC)cc(C(=O)Nc2ccc(S(=O)(=O)Nc3nc(C)cc(C)n3)cc2)c1 here?
Answer: The Potency was “inactive”.

Question: For COc1ccc(CNc2oc(-c3ccc(COc4ccccc4C)o3)nc2C#N)cc1, which Potency is on record?
Answer: The Potency was “inactive”.

Question: How did the Potency turn out when Cc1ccc(Cn2c(=N)n(CC(=O)c3ccc([N+](=O)[O-])cc3)c3ccccc32)cc1 was run?
Answer: The Potency was inconclusive: 4.47 µM [inhibitor, partial curve].

Question: Which Potency does the source give for CCN(Cc1ccccc1)C(=O)Cn1c(=O)n(-c2ccc(C)c(C)c2)c(=O)c2c(C)c(C)sc21 here?
Answer: The Potency was “inactive”.

Question: Which Potency does the source give for Cc1cn2c(=O)cc(COC(=O)COc3ccccc3C)nc2s1 here?
Answer: The Potency was “inactive”.

Question: For CC(=O)Oc1ccc2c(c1)CCC1C2CC[C@]2(C)C(OC(C)=O)CCC12 (some centres undefined), which Potency is on record?
Answer: Its Potency is inconclusive: 20 µM [inhibitor, partial curve].

Question: With O=c1cc(-c2ccccc2)n2c(SCc3ccc(F)cc3)nnc2[nH]1 as the molecule, how does the Potency read?
Answer: Its Potency is inconclusive: 6.31 µM [inhibitor, partial curve].

Question: With CC(C)c1ccccc1NC(=O)COC(=O)/C=C/c1cccc([N+](=O)[O-])c1 as the molecule, how does the Potency read?
Answer: The Potency was “inactive”.

Question: CCCCC/C=C\C\C=C/C=C/C=C/[C@@H](SCC(N)C(=O)O)[C@@H](O)CCCC(=O)O (some centres undefined) was tested. Which Potency did it give?
Answer: Its Potency is “inactive”.

Question: With CCOC(=O)C1=C(O)/C(=C\c2ccc(OC)c(OC)c2)N=C1C as the molecule, how does the Potency read?
Answer: Its Potency is inconclusive: 22.4 µM [inhibitor, single point].

Question: For CC1=C(C(=O)Nc2ccc(C)cc2C)C(c2cccs2)n2nc(SCc3ccccc3Cl)nc2N1 (centres undefined), which Potency is on record?
Answer: Its Potency is “inactive”.

Question: With Fc1ccc(CSc2nnc(Cc3sc(-c4ccccc4)nc3-c3ccccc3)o2)cc1 as the molecule, how does the Potency read?
Answer: Its Potency is “inactive”.

Question: With COc1cccc(N2CCN(C(=O)Cn3c(-c4cccs4)cc4ccccc43)CC2)c1 as the molecule, how does the Potency read?
Answer: The Potency was “inactive”.

Question: Cc1ccc(N2CCN(C(=O)c3cccc([N+](=O)[O-])c3)CC2)cc1Cl was tested. Which Potency did it give?
Answer: Its Potency is inconclusive: 39.8 µM [inhibitor, single point].

Question: Cc1cc(C)c2nc(NC(=O)c3ccc4c(c3)OCO4)sc2c1 was tested. Which Potency did it give?
Answer: Its Potency is “inactive”.

Question: With CC(C)C(Nc1ccc(C(F)(F)F)cc1[N+](=O)[O-])C(=O)O (centres undefined) as the molecule, how does the Potency read?
Answer: Its Potency is inconclusive: 10 µM [inhibitor, partial curve].
